# The campaign covered roughly 150,000 compounds. About 540 (0.36%) showed an effect of 50% or more. The list shows a part of the results.
# Tested on: Plasmodium falciparum
# Assay: Primary screen in NF54 nanoGlo assay, in single point, at 2uM, 72h; a lower Z score goes with more inhibition
# Format: functional, Erythrocyte
# Settings: timepoint 72 hour
Structure (SMILES),% Inhibition,Z score
COc1ccc([C@@H]2CC(=O)N(Cc3nn(C)cc3Cl)C(=O)N2)cc1,-4%,0.77
Cc1[nH]c(C(=O)O)c(C)c1C(=O)N1CCC[C@H]1c1ccc(CN(C)C)cc1,0%,-0.02
NC(=O)c1nc(-c2ccccc2)n2c1CCN(C(=O)NCCc1ccccc1)CC2,0%,-0.02
CN(C[C@H]1COCCO1)C(=O)c1cncc(F)c1,5%,-0.41
Cc1oncc1C(=O)N1CCC(C(=O)NC2CC2c2cccc(F)c2)CC1 (stereo not drawn),1%,-0.12
COC1CS(=O)(=O)CC1NC(=O)NC1CC(=O)N(Cc2ccccc2)C1C (stereo not drawn),-16%,2.87
Cc1cc(C(=O)Nc2sc3c(c2C#N)C(C)C(C)CC3)on1 (stereo not drawn),2%,-0.25
COc1cc(-c2nccc(N)n2)c(Cl)cn1,-7%,0.95
C[C@]1(CNC(=O)CCc2ccc(F)cc2)CCC(=O)N1,-14%,1.89
Brc1cncc(NCCc2nnc(-c3ccco3)[nH]2)c1,-7%,0.96
C=C(C)CN(C)c1ccc(C(=O)N2CCC(CN3CCCC3=O)CC2)cn1,-8%,0.9
CCC(CC)n1c(=O)n(Cc2nc(COC)no2)c2cc(C(=O)O)cnc21,8%,-1.04
Cc1cccc(S(=O)(=O)N2CCC(c3nccn3CC(N)=O)CC2)c1,-10%,1.44
Cc1csc([C@@H](C#N)C(=O)c2ccnc(N(C)C)c2)n1,-2%,0.24
COc1cccc(CNC(=O)COCC(=O)Nc2ccccc2)c1,-2%,0.29
O=S(=O)(c1ccc(F)cc1)N1CC(N2CC(F)(F)C[C@H]2COCc2ccccc2)C1,-20%,2.31
CC(C)(C)c1ccc(Cn2c(C(=O)NCc3ccco3)cc3cc(NC(=O)c4ccc(C(C)(C)C)cc4)ccc32)cc1,8%,-0.94
Cc1ccc(CN(CCO)CCn2cc[nH]c2=O)s1,2%,-0.35
COc1cccc(C(=O)N2CCN(C(=O)c3ccc(=O)n(C)c3)CC2)c1,-2%,0.35
C=CCOc1cccc(NC2CCOCC2)c1,-13%,1.2
CC(C)c1csc(C(=O)N2CCC(CNC(=O)c3ccnnc3)CC2)n1,-14%,1.22

Structure (SMILES),% Inhibition,Z score
O=C(NCCc1ccsc1)c1ncoc1C(F)(F)F,1%,-0.2
CNC(=O)CCCC(=O)N1CCCC1C1CCCc2ccccc21 (stereo not drawn),-5%,0.69
CCOCCN1CC[C@@]2(CCCN(Cc3cc(OC)ccc3F)C2)C1,4%,-0.78
Cc1ccc(CNC2CCN(S(=O)(=O)C(C)C)CC2C)o1 (stereo not drawn),0%,-0.03
CCn1ccc(C(=O)N2CCOc3ccc(CN4CCOCC4)cc3C2)n1,11%,-2.19
Cc1cccnc1C1CCCC(Nc2ccc(CNC(N)=O)cc2)C1 (stereo not drawn),-8%,0.84
O=C(Cc1ccon1)N(Cc1ccccc1)CC1(O)CCCC1,11%,-1.39
CCNC(=O)[C@H]1CCN(S(=O)(=O)c2ccc3[nH]c(=O)n(C)c(=O)c3c2)C1,-11%,1.57
CC1CN(C)CCN1C(=O)C1CC1c1ccco1 (stereo not drawn),-8%,1.06
Cc1cccc(NC(=O)C(Nc2cccc(C)c2)(c2ccccc2)c2ccccc2)c1,-8%,1.06
O=C(N[C@@H](Cc1ccccc1)C(=O)O)C1CCOC1 (stereo partly drawn),-7%,0.88
Cc1cc(Cl)cc2c1NC(=O)C21NC(CCC(N)=O)[C@H]2C(=O)N(Cc3ccccc3Cl)C(=O)[C@H]21 (stereo partly drawn),8%,-1
COc1cc(=O)n(-c2ccccc2)cc1C(=O)N1CC(Oc2cc(C)n(C3CC3)c(=O)c2)C1,-6%,0.97
c1ccc(CN2CCC[C@H]2c2nc(-c3ccncc3)no2)cc1,17%,-2.2
Cn1c(N2CCOCC2)nc2cc(-c3nc([C@H]4CCOC4)no3)ccc21,-21%,2.11
COc1cc2c(cc1OC)CN(C(=O)Cn1cnc3ccccc3c1=O)CC2,-6%,0.94
CS(=O)(=O)CCOc1ccc(Cl)cc1NC1CCCC1,6%,-0.65
CC(C)(CNC(=O)c1cnc[nH]1)C1(O)CCCC1,-8%,1.43
O=C(NCc1cccnc1)[C@H]1CCCN(S(=O)(=O)c2ccc3ccccc3c2)C1,-7%,1.46
CN(C)S(=O)(=O)N1CCC2(CCC(=O)N(CCc3ccccn3)C2)CC1,-12%,1.7
Cc1ccc(-c2noc(-c3ccc(CS(=O)(=O)Cc4ccccc4C)o3)n2)cc1,-2%,0.29

Structure (SMILES),% Inhibition,Z score
CN1CCC2(CC1)CCN(C(=O)c1ccccc1-c1ccccc1)C2,-5%,0.74
C[C@H](NC(=O)c1cc(Br)c[nH]1)C1CC1,-6%,0.86
CCn1c(-c2cc(NC(=O)COC)[nH]n2)c(C)c2ccccc21,4%,-0.52
CC(C)N(C)c1cccc(NC(=O)N(C)CCc2cnccn2)c1,-7%,1.01
C[C@](O)(CNC(=O)NCCc1ccsc1)c1ccc(F)cc1,-4%,0.44
COCCNc1nc(-c2ccc(C#N)cc2)cc(C(C)(C)C)n1,-16%,1.44
Cc1cn(C)c(=O)n(Cc2nc(C(F)(F)F)cs2)c1=O,-2%,0.29
CC(C)c1ccc(N2CC[C@H](CN(C)C)C2)nn1,-4%,0.45
O=C1CCCCCN1CC(=O)N1CCc2ccccc2C1,-7%,0.97
CC(C)CNC(=O)CCc1c(-c2ccc(Cl)cc2)nc2ccc(-c3ccccc3)cn12,3%,-0.5
CC(C)N(C1CC1)S(=O)(=O)c1ccc2c(c1)OCCCO2,-2%,0.25
COc1ccc(N2CCN(CN3CC(=O)N(C(C)C)C3=O)CC2)cc1,2%,-0.3
CCN(CC)C(=O)c1cnn(-c2nccc(-c3cc(C)sc3C)n2)c1C,-19%,2.55
O=C(Nc1ccc2oc(-c3cccc(Cl)c3Cl)nc2c1)c1cccc2ccccc12,0%,0.05
Cc1nnc(NC(=O)c2ccccc2-c2ccccc2)s1,2%,-0.28
COc1cccc(Cn2nnc3cc(C(=O)Nc4ccc(OC)c(Cl)c4)ccc32)c1,-15%,1.56
Cc1c(Cl)cccc1NC(=O)Cn1nc2c(N3CCCC3)nc3ccccc3n2c1=O,-10%,1.46
Cn1cc([C@H](CC(N)=O)c2c(Cc3cc(F)c(F)cc3F)[nH][nH]c2=O)cn1,-1%,0.19
O=C(NC(c1ccccc1)[C@H]1C[C@@H](O)C1)c1ccc(Cn2ccnc2)o1 (stereo partly drawn),-11%,1.86
CC[C@H](C)CCNC(=O)N(C)Cc1ccc2ccccc2n1,-7%,1.3
Clc1cccc(CNc2nc(-c3ccccc3)no2)c1,-16%,1.39

Structure (SMILES),% Inhibition,Z score
FC1(F)CN[C@H](c2nc(-c3ccccc3)no2)C1,8%,-1.4
Cc1ncccc1-n1cccc1C(=O)NCc1ccc(Cl)cc1,2%,-0.21
CC(C)[C@@H]1CN(C(=O)c2ncccc2O)CCCN1CC1CC1,-10%,1.44
COc1cccc(C(=O)NCc2ccc(-c3nc(C4CC4)no3)s2)c1,2%,-0.29
Cc1cnc(CC[C@H]2CCCN2C(=O)CCn2ccnc2)n1C,34%,-4.61
O=C1COc2ccc(C(=O)Cn3nc4cnccn4c3=O)cc2N1,10%,-1.19
COc1ccccc1N1CCN(CC2(CC(=O)O)CC2)CC1,-11%,1.33
CCn1c(C(=O)N2CCN(c3ccccn3)CC2)cc2c(-c3cccs3)nn(-c3ccccc3)c21,-7%,1.14
CCc1noc(CCNC(=O)c2ccc(-c3c(C)ncnc3OC)cc2)n1,-17%,2.11
COCCC1(c2noc(C3CCOCC3)n2)CCN(Cc2c(C)nn(C)c2C)CC1,-16%,2.12
CCOC(=O)NC(=O)COC(=O)C[C@H](C)c1ccccc1,-5%,0.8
Cc1ccc(-c2cc(NC(=O)c3ccccc3)c(=O)n(CC(=O)Nc3cc(C)ccc3C)n2)cc1,-7%,1.07
CCOC(=O)C(=O)NCc1ccc(F)cc1,-7%,0.78
CC(C)C(=O)N[C@@](C)(Cn1cccn1)C(N)=O,1%,-0.08
Cn1nccc1C=Cc1ncc(Br)s1,-8%,1.04
COc1cc(C(=O)N2CCNC(=O)C[C@H]2c2ccccc2)ccc1C,-16%,2.03
Cc1ccc(C)c(NC(=O)NCc2cc3n(n2)CCN(S(C)(=O)=O)C3)c1,-10%,1.36
Cn1c(=O)ccn(CC(=O)NCC2(c3ccc(Cl)cc3)CCCC2)c1=O,-13%,1.78
CCOC(=O)CN1C(=O)N(c2ccc(OC)cc2)c2ncccc2S1(=O)=O,-22%,2.2
COc1ccc2cc1OCC(=O)N[C@@H](C)C(=O)N(C)CCCCN(C(=O)c1ccc3cccc(F)c3n1)CCCNC(=O)CC2,-2%,0.3
CCN1C[C@H](CN(C)CC(=O)NC2CCCC2)Oc2ccccc21,-13%,1.09

# — ChEMBL document CHEMBL4888484, “Replenishing the malaria drug discovery pipeline: Screening and hit evaluation of the MMV Hit Generation Library 1 (HGL1) against asexual blood stage Plasmodium falciparum ,using a nano luciferase reporter read-out” (2022)
